# About 6,400 (1.6%) of roughly 410,000 compounds were called active. Inconclusive results, whose numbers are uncertain, are shown with a selection of clear calls. The call rests on the fitted dose curve; in most records, active means well fitted inhibition curve with a large enough effect; inconclusive means small, poorly fitted or top-dose-only effect; inactive means no such curve, though single readings can be large or run the other way. No potency is given beside an inconclusive call; the fits are too rough.
# Target: Glucagon-like peptide 1 receptor (Homo sapiens) (UniProt P43220)
# Sequence of UniProt P43220 (P43220 whole entry, looked up): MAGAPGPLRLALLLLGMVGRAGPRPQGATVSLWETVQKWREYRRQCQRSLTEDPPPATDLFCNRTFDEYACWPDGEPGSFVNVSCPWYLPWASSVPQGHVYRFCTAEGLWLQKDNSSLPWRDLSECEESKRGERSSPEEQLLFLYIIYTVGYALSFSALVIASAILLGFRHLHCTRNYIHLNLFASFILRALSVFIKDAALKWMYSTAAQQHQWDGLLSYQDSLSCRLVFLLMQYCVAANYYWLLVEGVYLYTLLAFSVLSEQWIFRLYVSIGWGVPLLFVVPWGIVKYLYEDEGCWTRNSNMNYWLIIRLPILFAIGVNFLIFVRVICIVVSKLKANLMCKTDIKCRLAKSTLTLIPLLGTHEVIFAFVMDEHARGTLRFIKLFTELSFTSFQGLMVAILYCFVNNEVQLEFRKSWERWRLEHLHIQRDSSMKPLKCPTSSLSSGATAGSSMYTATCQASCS
# Assay: qHTS of GLP-1 Receptor Inverse Agonists (Inhibition Mode); further: nearly all actives have a fitted effect of over 55% in size
# Details: HEK293 GLP-1R CRE-luciferase, luminescence, 24 h, GLP-1R form is constitutively active; activity change, negative = inhibition: at 38.3 µM (top of the series) unless noted
# Outline: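 Cells are plated, allowed 12 hours at 37 deg C, then treated with compounds for 24 hr before luciferase detection reagent is added and luminescence is read after 12 min at room temperature. The HEK293 line carries constitutively active GLP-1R with a cAMP-responsive reporter.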
# On the % scale 0 is the no-effect control and ±100 the full control effect; potency means the concentration at half of the fitted maximal effect; tags describe the fitted curve by direction and shape.
Compound,Potency,"activity change, negative = inhibition"
CC(=O)Nc1cc2c(cc1NC(=O)Cn1nc(-c3ccccc3)ccc1=O)OCCO2,"inconclusive [inhibitor, partial curve, poor fit]",–
Cc1ccc(N(C)S(=O)(=O)c2cccc(C(=O)OCC(=O)N(C)Cc3ccccc3)c2)cc1,"inconclusive [inhibitor, single point]",–
COc1ccc(NC(C)=[N+](C)CCNS(=O)(=O)c2ccc(Cl)cc2)cc1Cl,inactive,–
OC(COc1ccc(OCC(O)CN2CCN(Cc3ccccc3)CC2)cc1)CN1CCN(Cc2ccccc2)CC1 (centres undefined),"inconclusive [inhibitor, full curve, poor fit]",–
Cc1ccc(CNC(=O)CCNS(=O)(=O)c2ccc3c(c2)CCCC(=O)N3)cc1,inactive,–
CC1(C)CC(=O)C(C(=S)Nc2ccccc2)=C(NC2CC(C)(C)NC(C)(C)C2)C1,"inconclusive [inhibitor, partial curve, poor fit]",–
CN(CC(=O)Nc1ccc(Cl)cc1)C(=O)c1ccc(COc2ccccc2)cc1,"inconclusive [inhibitor, partial curve, poor fit]",–
COc1cc2c(c(OC)c1OC)-c1ccc(NCc3ccccc3)c(=O)cc1C(NC(C)=O)CC2 (centres undefined),"inconclusive [inhibitor, full curve, poor fit]",–
COc1ccc(CN(C)C(=S)Nc2ccc(Cl)cc2)cc1,"inconclusive [inhibitor, single point]",–
OC(c1cccc(Cl)c1)c1nc(-c2csc3ccccc23)cs1 (centres undefined),"inconclusive [inhibitor, single point]",–
Cc1cc(C)nc(N/N=C/c2ccccc2OCc2ccccc2)n1,"inconclusive [inhibitor, single point]",–
CCOc1ccc(CNC(=O)c2ccc(CSc3nc4ccncc4n3Cc3ccc(F)cc3)cc2)cc1,"inconclusive [inhibitor, partial curve, poor fit]",–
Cn1cccc1C(=O)OCc1ccc(C(C)(C)C)cc1,"inconclusive [inhibitor, single point]",–
CCCc1nc2ccc(Cl)cn2c1Cc1ccc(C)cc1,inactive,–
COc1ccc(NC(=O)CSc2nnc(C3CCCCC3)n2-c2ccccc2)cc1,"inconclusive [inhibitor, full curve]",–
C/C(=N\Nc1cc(C)nc(-c2ccccc2)n1)c1cccc([N+](=O)[O-])c1,"inconclusive [inhibitor, partial curve, poor fit]",–
COc1cccc(NC(=O)c2oc3ccccc3c2NC(=O)c2ccccc2C)c1,"inconclusive [inhibitor, partial curve, poor fit]",–
COc1cccc(-c2cc(C(=O)Nc3cnn(Cc4ccc(Cl)cc4Cl)c3)no2)c1,inactive,–
Cn1nc(C(C)(C)C)cc1C(=O)NNC(=O)c1ccccc1Cl,inactive,–
Cn1nc(C(C)(C)C)cc1NC(=O)Nc1cc(Cl)cc(Cl)c1,"inconclusive [inhibitor, partial curve, poor fit]",–
Cc1cccc(OCCn2c(=S)[nH]c3ccccc32)c1,"inconclusive [inhibitor, single point]",–
O=C(Oc1ccc2c(c1)O/C(=C\c1ccncc1)C2=O)c1ccccc1,inactive,–

Compound,Potency,"activity change, negative = inhibition"
Brc1ccsc1/C=N/Nc1ccccc1,"inconclusive [inhibitor, partial curve, poor fit]",–
CCCCn1c(SCC(=O)c2cc(OC)ccc2OC)nc2cc(S(N)(=O)=O)ccc21,inactive,–
CCOc1cc(C(=O)NC2CCCCCCC2)cc(OCC)c1OCC,"inconclusive [inhibitor, single point]",–
Cn1cnnc1SC(C(=O)Nc1cc(Cl)cc(Cl)c1)c1ccccc1 (centres undefined),"inconclusive [inhibitor, full curve]",–
CC(C)n1cnc2c(N(C)c3cccc(Cl)c3)nc(N(CCO)CCO)nc21,inactive,–
CCOc1ccc(S(=O)(=O)Nc2cccc(C(=O)NCC(c3ccc(OC)cc3)N3CCOCC3)c2)cc1 (centres undefined),inactive,–
COC(=O)c1ccccc1NC(=O)CSc1ccccc1,–,inconclusive: -31.6% [inhibitor]
CC(=O)Nc1ccc(Nc2nc(-c3c(C)nc4ccccn34)cs2)cc1,"inconclusive [inhibitor, full curve, poor fit]",–
Cc1cccc(OCC(=O)NCC(=O)N/N=C/c2cc(Br)ccc2OCc2ccccc2)c1,inactive,–
COC(=O)c1ccc2ccn(CC(=O)NC3CCCCC3)c2c1,inactive,–
Cc1ccccc1Nc1nc(N2CCOCC2)nc(N2CCOCC2)n1,"inconclusive [inhibitor, partial curve, poor fit]",–
CCCC1NC(=O)c2cc3ccccc3cc2-n2c1nc1cc(F)ccc1c2=O (centres undefined),"inconclusive [inhibitor, partial curve, poor fit]",–
COC(=O)[C@]12CCCCC=C1N(Cc1ccc(Cl)cc1Cl)C(=O)[C@H](CC(=O)NCc1cccs1)C2,"inconclusive [inhibitor, single point]",–
C/C(=N\Nc1ccccc1)c1c(O)cc(C)oc1=O,"inconclusive [inhibitor, full curve, poor fit]",–
C=C1[C@@H](OC(C)=O)CC[C@]2(C)[C@@H]1C[C@@H]1C[C@H](OC(C)=O)C(C)=C([C@@H](OC(C)=O)[C@@H]2OC(C)=O)C1(C)C,"inconclusive [inhibitor, partial curve, poor fit]",–
Cc1cc(C)n(C2CCCCC2OC(=O)c2ccccc2F)n1 (centres undefined),"inconclusive [inhibitor, full curve, poor fit]",–
C=CCNC(=S)N1CCC(C(=O)c2ccc(Cl)cc2)CC1,"inconclusive [inhibitor, partial curve]",–
O=C(CCc1nnc(C2CCCCC2)o1)N1CCN(Cc2ccccc2)CC1,inactive,–
CCOc1ccc(CNC(=O)C2CCCN(c3nn4cc(-c5ccc(OC)cc5)nc4s3)C2)cc1 (centres undefined),inactive,–
COc1ccc(NC(=O)CC2C(=O)N(c3ccccc3)C(=O)N2CCc2sccc2C)cc1 (centres undefined),inactive,–
CCc1ccccc1NC(=O)c1sc2nc(C)cc(C)c2c1N,inactive,–
O=C(CC1SC(=Nc2ccccc2)N(CCc2ccccn2)C1=O)Nc1ccc(F)cc1 (centres undefined),"inconclusive [inhibitor, single point]",–

Compound,Potency,"activity change, negative = inhibition"
O=C(c1ccc(S(=O)(=O)Cc2cc(F)ccc2F)c([N+](=O)[O-])c1)N1CCOCC1,"inconclusive [inhibitor, single point]",–
CC1(C(=O)OCC(=O)Nc2ccc(S(=O)(=O)N3CCOCC3)cc2)CC1(Cl)Cl (centres undefined),"inconclusive [inhibitor, single point]",–
COc1ccc(-c2ccc3[nH]c4c(c3c2)CCN2C(=O)[C@@H]([C@H](C)O)[C@@H](N(C)C(=O)Nc3cc(Cl)cc(Cl)c3)C[C@@H]42)cc1,"inconclusive [inhibitor, full curve, poor fit]",–
Cc1nc(N2CCN(S(=O)(=O)c3ccc(F)cc3)CC2)c2c(-c3cccs3)csc2n1,"inconclusive [inhibitor, single point]",–
CC(C)c1ccccc1NC(=S)NCCCn1ccnc1,inactive,–
COc1ccc(Br)c(Cn2c(C)c(C(=O)NCc3cccs3)sc2=O)c1,"inconclusive [inhibitor, single point]",–
Cc1ccc(NC(=O)c2c(C)oc3ccc(O)c(CN4CCN(Cc5ccccc5)CC4)c23)cc1,"inconclusive [inhibitor, single point]",–
COc1ccc(/C=C2\Sc3ccc(C(=O)N4CCN(Cc5ccccc5)CC4)cc3N(C)C2=O)cc1OC,"inconclusive [inhibitor, single point]",–
Cc1ccc(-n2nc(C(=O)N(C)c3ccc(C)c(C)c3)c3c4ccccc4n(C)c3c2=O)cc1,inactive,–
CCn1nnc(NC(=O)c2cccc(-c3cc4ccccc4oc3=O)c2)n1,inactive,–
COC(=O)N/N=C\c1ccc(OC/C=C/c2ccccc2)cc1,inactive,–
O=C(/C=C/c1ccco1)NC(=S)Nc1ccccc1N1CCCC1,"inconclusive [inhibitor, partial curve, poor fit]",–
CCCCN(C=O)c1c(CC)nc2c(OCCC3CCCCC3)cccn12,"inconclusive [inhibitor, partial curve, poor fit]",–
O=C(CNc1ccc(F)cc1)N/N=C1\CCCc2ccccc21,"inconclusive [inhibitor, partial curve]",–
CCOC(=O)[C@]12Cc3c(cc(OC)c(OC)c3OC)[C@H]1N(Cc1ccccc1)C(=O)c1cc(F)c(F)cc12,"inconclusive [inhibitor, single point]",–
Cc1ccc(-n2ncc3c(NCCCN(C)C)ncnc32)cc1Cl,"inconclusive [inhibitor, partial curve, poor fit]",–
O=[N+]([O-])c1ccc(S(=O)(=O)N2CCn3cccc3C2c2ccc(Br)cc2)cc1 (centres undefined),"inconclusive [inhibitor, partial curve, poor fit]",–
COc1ccc(-c2csc3ncnc(NCCN4CCOCC4)c23)cc1,"inconclusive [inhibitor, partial curve, poor fit]",–
Cc1ccccc1CNC(=O)C1CCCCN1S(=O)(=O)c1ccc(F)cc1 (centres undefined),"inconclusive [inhibitor, single point]",–
Cc1ccc(S(=O)(=O)N(C)CC(=O)NCCc2c[nH]c3ccccc23)cc1,"inconclusive [inhibitor, single point]",–

# From PubChem BioAssay AID624417 (National Center for Advancing Translational Sciences (NCATS), 2012)
